This note sets out measurements from publication PMC4336329 (PLoS ONE, 2015).

Screen size: about 310,000 compounds; about 14,000 (4.5%) showed an effect of 50% or more. The effect is printed as a negative number. This is one part of the list.
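Further: peak tail current of the secondary pulse compared with the same well before compound.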

In this experiment the target is human ether-à-go-go-related gene (hERG) potassium channel (human, UniProt Q12809). The experiment is described as follows: primary screen, population patch clamp on CHO cells stably expressing hERG.
Sequence of human ether-à-go-go-related gene (hERG) potassium channel (Q12809 whole entry, looked up): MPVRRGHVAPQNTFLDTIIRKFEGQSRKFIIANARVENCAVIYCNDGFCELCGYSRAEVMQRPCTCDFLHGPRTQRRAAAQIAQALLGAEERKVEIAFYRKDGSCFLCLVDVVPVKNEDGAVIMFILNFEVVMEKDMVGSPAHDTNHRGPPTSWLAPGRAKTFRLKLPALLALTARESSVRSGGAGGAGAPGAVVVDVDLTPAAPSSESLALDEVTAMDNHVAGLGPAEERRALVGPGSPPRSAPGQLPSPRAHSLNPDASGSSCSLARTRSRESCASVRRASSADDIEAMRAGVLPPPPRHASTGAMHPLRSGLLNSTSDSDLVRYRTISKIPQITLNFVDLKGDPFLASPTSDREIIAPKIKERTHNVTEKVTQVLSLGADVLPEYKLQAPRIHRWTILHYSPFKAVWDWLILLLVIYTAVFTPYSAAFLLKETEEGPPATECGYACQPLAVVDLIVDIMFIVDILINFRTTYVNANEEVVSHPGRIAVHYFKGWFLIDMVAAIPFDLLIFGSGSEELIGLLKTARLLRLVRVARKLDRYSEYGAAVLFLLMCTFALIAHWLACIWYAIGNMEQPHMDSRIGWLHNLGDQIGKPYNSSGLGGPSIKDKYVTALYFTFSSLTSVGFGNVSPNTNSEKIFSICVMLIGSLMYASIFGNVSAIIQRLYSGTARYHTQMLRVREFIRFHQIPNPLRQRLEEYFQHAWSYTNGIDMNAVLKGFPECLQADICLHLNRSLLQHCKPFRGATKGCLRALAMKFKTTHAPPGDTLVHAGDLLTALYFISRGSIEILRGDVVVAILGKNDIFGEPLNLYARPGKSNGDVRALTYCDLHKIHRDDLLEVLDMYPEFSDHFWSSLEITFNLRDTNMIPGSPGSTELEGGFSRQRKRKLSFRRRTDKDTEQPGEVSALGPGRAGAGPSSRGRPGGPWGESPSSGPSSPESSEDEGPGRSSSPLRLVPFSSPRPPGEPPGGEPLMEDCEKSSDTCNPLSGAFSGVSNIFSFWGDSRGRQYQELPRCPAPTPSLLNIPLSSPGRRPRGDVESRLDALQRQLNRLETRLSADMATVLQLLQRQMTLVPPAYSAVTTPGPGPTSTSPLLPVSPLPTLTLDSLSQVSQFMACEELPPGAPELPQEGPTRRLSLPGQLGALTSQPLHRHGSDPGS
On to `COC(=O)C1=C(C)N(c2ccc(F)cc2)C(=O)C1`, for which the “hERG current change (%, negative = inhibition) at 10uM” value was -2.42%.

For `COc1ccc(NC(C)=O)cc1NC(=O)c1cccc(C(F)(F)F)c1`, the “hERG current change (%, negative = inhibition) at 10uM” value is reported as -15.4%.

Regarding `CN(C)CCC(Oc1ccccc1OCc1ccccc1)c1ccccc1.O=C(O)C(=O)O` (stereo not shown), the “hERG current change (%, negative = inhibition) at 10uM” value is -68.6%.

Turning to `Nc1ccc(S(=O)(=O)Nc2nccs2)cc1`, the “hERG current change (%, negative = inhibition) at 10uM” value is 14.8%.

Consider `COc1ccccc1N1CCN(C(=S)Nc2ccc3nc(N4CCOCC4)cc(C)c3c2)CC1`, for which the “hERG current change (%, negative = inhibition) at 10uM” value is listed as -49.3%.

Regarding `CCCc1[nH]n(-c2ccc(F)cc2)c(=O)c1C=Nc1cccc(F)c1`, the “hERG current change (%, negative = inhibition) at 10uM” value is on record as 11.9%.

With `O=C(CCS(=O)(=O)c1ccccc1)Nc1ccccc1N1CCOCC1`, the “hERG current change (%, negative = inhibition) at 10uM” value is reported as -8.2%.

Regarding `CC1CC(C)CN(C(=O)C(C)N(C)CC(=O)Nc2ccc(F)cc2)C1` (stereo not shown), the “hERG current change (%, negative = inhibition) at 10uM” value is reported as -20.6%.

As to `Cl.Nc1cccc(Oc2c(F)c(F)c(Oc3cccc(N)c3)c(F)c2F)c1`, the “hERG current change (%, negative = inhibition) at 10uM” value was 5.82%.

Turning to `COc1ccc(NC(=O)c2ccc(CN3CCc4ccccc4C3)cc2)cc1OC`, the “hERG current change (%, negative = inhibition) at 10uM” value came to 11.4%.

As to `CCOC(=O)C1(Cc2ccccc2C(F)(F)F)CCN(C2CCC2)CC1`, the “hERG current change (%, negative = inhibition) at 10uM” value was -36.6%.

Turning to `Cc1cc(=O)[nH]c2ccc(S(=O)(=O)Nc3ccc(O)cc3)cc12`, the “hERG current change (%, negative = inhibition) at 10uM” value is on record as 20.9%.

`CCc1ccc(NC(=O)CSc2ccc(-c3cccnc3)nn2)cc1`: the “hERG current change (%, negative = inhibition) at 10uM” value is -23.2%.

Turning to `Cl.Oc1ccccc1Nc1nc(NCC2CCCO2)c2ccccc2n1` (stereo not shown), the “hERG current change (%, negative = inhibition) at 10uM” value is given as -67.5%.

On to `CN(C)c1ccnc2sc3c(=O)n(Cc4ccccc4)cnc3c12`, for which the “hERG current change (%, negative = inhibition) at 10uM” value is listed as -51%.

For the molecule `Cc1c(Cl)cccc1N1C(=O)C(N2C(=O)c3cccc([N+](=O)[O-])c3C2=O)C1c1cccs1` (stereo not shown), the “hERG current change (%, negative = inhibition) at 10uM” value was 7.24%.

Turning to `Cc1ccc(C(=O)COC(=O)c2cc(=O)[nH]c3ccccc23)cc1C`, the “hERG current change (%, negative = inhibition) at 10uM” value is recorded as 15.3%.

Take `O=c1c(-c2cccc(Cl)c2)c[nH]n1-c1ccccc1`: the “hERG current change (%, negative = inhibition) at 10uM” value came out at 25.5%.

Turning to `CC(=O)c1sc(NC(=O)c2cc(-c3ccccc3)nn2-c2ccccc2)nc1C`, the “hERG current change (%, negative = inhibition) at 10uM” value was 16.2%.

For `CC(C)c1c(O)nc(SCC(=O)Nc2ccc3c(c2)CCC3)[nH]c1=O`, the “hERG current change (%, negative = inhibition) at 10uM” value was determined as 10.3%.

Turning to `CN1C(=O)/C(=C/c2ccc(-c3ccccc3[N+](=O)[O-])o2)SC1=Nc1ccc(Cl)c(C(=O)O)c1`, the “hERG current change (%, negative = inhibition) at 10uM” value is listed as 7.25%.

Consider `O=C1c2ccccc2N2C(=O)c3ccccc3C2N1Cc1ccccc1` (stereo not shown), for which the “hERG current change (%, negative = inhibition) at 10uM” value is reported as -57.9%.

In the case of `COc1ccc(-c2nnn(CC(=O)N(CC3CCCO3)C(C(=O)NC(C)(C)C)c3ccco3)n2)cc1OC` (stereo not shown), the “hERG current change (%, negative = inhibition) at 10uM” value is on record as -1.6%.

For `CC1CCN(C(=O)Cn2c(=O)n(CCCC(=O)NCc3ccco3)c(=O)c3sccc32)CC1`, the “hERG current change (%, negative = inhibition) at 10uM” value is recorded as 5.2%.

As for `Cc1cc(C)c2cc(C#N)c(NCCCNC(=O)CCC(=O)O)nc2c1`, the “hERG current change (%, negative = inhibition) at 10uM” value came to 12.2%.

`Cc1ccc(C(=O)N2CCc3ccccc3C2)cc1S(=O)(=O)N1CCOCC1`: the “hERG current change (%, negative = inhibition) at 10uM” value is given as -31.1%.

With `COc1ccc(CC(=O)NCc2cccs2)cc1`, the “hERG current change (%, negative = inhibition) at 10uM” value worked out at 5.8%.

As to `CNC(=O)N(C1=NCCCCC1)c1ccc(Br)cc1`, the “hERG current change (%, negative = inhibition) at 10uM” value is recorded as -7.48%.

For the molecule `Cc1cc(NC(=O)COC(=O)C2CCN(S(=O)(=O)c3ccccc3)CC2)c([N+](=O)[O-])cc1C`, the “hERG current change (%, negative = inhibition) at 10uM” value was -41.6%.

`Clc1ccccc1OCc1nnc(-c2ccccc2Br)o1`: the “hERG current change (%, negative = inhibition) at 10uM” value was determined as 13.1%.

For the molecule `COc1ccc(CCCc2nnc(SCC(=O)Nc3ccccc3F)o2)cc1`, the “hERG current change (%, negative = inhibition) at 10uM” value was -10%.

With `COc1ccc(NS(=O)(=O)c2cccc(NC(=O)NCCCl)c2)cc1`, the “hERG current change (%, negative = inhibition) at 10uM” value was found to be 4.65%.

As to `COc1cccc(/C=C/C(=O)Nc2ccc(C(=O)Nc3cccc(S(N)(=O)=O)c3)cc2)c1OC`, the “hERG current change (%, negative = inhibition) at 10uM” value is recorded as 15.8%.

In the case of `O=C(COC(=O)CCC(=O)c1ccc(Cl)cc1)NCc1ccco1`, the “hERG current change (%, negative = inhibition) at 10uM” value is listed as 8.01%.

Take `COc1ccc(NC(=O)Cc2coc3cc(C)c(C(C)C)cc23)cc1S(=O)(=O)N1CCOCC1`: the “hERG current change (%, negative = inhibition) at 10uM” value is -24.6%.

For `CCOC(=O)C1C(=O)NC(c2ccccc2)=NC1c1ccc(F)cc1` (stereo not shown), the “hERG current change (%, negative = inhibition) at 10uM” value stood at 3.44%.

As for `C/C=C/C(O)c1ccc2ccccc2c1` (stereo not shown), the “hERG current change (%, negative = inhibition) at 10uM” value is recorded as 16.5%.

On to `COc1ccc2oc(=O)c(/C(C)=N/NC(=O)c3ccncc3)cc2c1`, for which the “hERG current change (%, negative = inhibition) at 10uM” value is recorded as -8.39%.

Take `Cc1ccc(OCc2nnc(NC(=O)c3ccco3)s2)cc1`: the “hERG current change (%, negative = inhibition) at 10uM” value worked out at 6.86%.

As for `CC(=O)Nc1c(O)nc(SCC(=O)Nc2nnc(CC(C)C)s2)[nH]c1=O`, the “hERG current change (%, negative = inhibition) at 10uM” value is 13.9%.

Regarding `CCOC(=O)c1c(O)c2ccccc2n(C)c1=O`, the “hERG current change (%, negative = inhibition) at 10uM” value worked out at 27.7%.

Turning to `COc1ccc(C(=O)N2C[C@H]3C[C@@H](C2)c2cccc(=O)n2C3)cc1OC`, the “hERG current change (%, negative = inhibition) at 10uM” value was 3.12%.

`COc1cc(NC(=S)N2CCN(CCO)CC2)c(OC)cc1Cl`: the “hERG current change (%, negative = inhibition) at 10uM” value is reported as 17.3%.

For `Cc1ccccc1S(=O)(=O)Oc1ccccc1C(=O)Oc1ccccc1`, the “hERG current change (%, negative = inhibition) at 10uM” value was -1.26%.

Take `O=c1cc(-c2ccccc2)c2cc(Cl)c(O)c(CN3CCOCC3)c2o1`: the “hERG current change (%, negative = inhibition) at 10uM” value is listed as -11%.

In the case of `Cc1nn2c(NCCN(C)C)c3c(nc2c1-c1ccccc1)CCCC3`, the “hERG current change (%, negative = inhibition) at 10uM” value is given as -41.4%.

For `CC(OCCN1CCCC1)(c1ccc(F)cc1)c1ccc(F)cc1.Cl`, the “hERG current change (%, negative = inhibition) at 10uM” value is listed as -63.1%.

As to `Cc1cc(C)c(NC(=O)C2CCCN(S(=O)(=O)c3c(C)noc3/C=C/N(C)C)C2)c(C)c1` (stereo not shown), the “hERG current change (%, negative = inhibition) at 10uM” value is given as 4.13%.

For the molecule `Nc1ccc(-c2nc3ccc(N)cc3s2)cc1`, the “hERG current change (%, negative = inhibition) at 10uM” value stood at 10.2%.

Turning to `c1ccc2oc(-c3ccn[nH]3)cc2c1`, the “hERG current change (%, negative = inhibition) at 10uM” value was found to be 8.06%.

For the molecule `CCN(CC(=O)Nc1c(F)cccc1F)C(=O)c1cc(S(=O)(=O)N(C)C)ccc1N1CCCC1`, the “hERG current change (%, negative = inhibition) at 10uM” value is -2.85%.

On to `Cc1ccccc1NC(=O)Cn1c(O)c(N=NC(=O)c2ccccc2O)c2ccccc21`, for which the “hERG current change (%, negative = inhibition) at 10uM” value turned out to be 17.5%.

As for `O=C(CN1C(=O)/C(=C\C=C\c2ccccc2)SC1=S)Nc1ccc(F)cc1`, the “hERG current change (%, negative = inhibition) at 10uM” value is 12.8%.

Turning to `CC12CCC(=O)N1C(C(=O)NCCc1ccc(F)cc1)CS2` (stereo not shown), the “hERG current change (%, negative = inhibition) at 10uM” value is 9.67%.

Regarding `CCC(CC)c1nnc(NC(=O)CSCC(=O)Nc2cc(C)on2)s1`, the “hERG current change (%, negative = inhibition) at 10uM” value is on record as 7.58%.
